In publication PMC12040169 (PLOS Biology, 2025):
This is one part of the list.

Test system: T1, C. trachomatis L2/434/Bu expressing GFP (CTL2-GFP)
T1 construct: L2/434/Bu GFP intracellular growth in HeLa cells
Design: species or system HeLa; C. trachomatis total inclusion area by high-content imaging, normalised to DMSO
Conditions: total inclusion area; 28.5 h, 10 µM; inhibitor
Outline: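 Imaging read-out: GFP inclusions and Hoechst nuclei captured by high-content imaging after fixation. Inclusion area/number = chlamydial growth; nuclei count = host cell viability. MIC calculated per earlier method.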

| Structure (SMILES) | % of control remaining |
| --- | --- |
| O=C(NC(c1ccccn1)c1cccs1)C1CCN(S(=O)(=O)c2ccc(C(F)(F)F)cc2)CC1 (centres unmarked) [CBK060153] | 111.109 |
| c1cncc(COc2ccnc(N3CCCN(CCN4CCOCC4)CC3)n2)c1 [CBK084122] | 82.9598 |
| CC(=O)c1ccc(NC(=O)N2Cc3nc[nH]c3C[C@H]2c2nc(-c3ccc(C)cc3)no2)cc1 [CBK288959] | 75.2272 |
| CN(Cc1cccnc1)C(=O)CSC(c1ccccc1)c1ccccc1 [CBK298284] | 110.732 |
| O=C1Cc2ccccc2C2(CCN(C(=O)NCc3cccc(F)c3)CC2)N1 [CBK047288] | 96.6517 |
| Cc1nc(C(=O)N2CCn3nc(C(O)c4ccccc4)cc3C2)c(C)s1 (centres unmarked) [CBK307474] | 58.3475 |
| O=C(NCCCc1ccccn1)c1cc(C2CCCCC2)no1 [CBK283296] | 92.4652 |
| CCOC(=O)C(NC(=O)CCn1ccc2ccncc21)C(C)C (centres unmarked) [CBK284719] | 103.278 |
| COc1ccc(S(=O)(=O)Nc2ccc3oc(-c4ccccc4F)cc(=O)c3c2)cc1 [CBK300518] | 78.7418 |
| CCC(c1cccnc1)N(C)C(=O)c1ccc(=O)n(C)c1 (centres unmarked) [CBK306802] | 122.283 |
| O=C(CC1c2ccccc2Oc2ccccc21)N1CCc2nc3ccccc3c(=O)n2CC1 [CBK286314] | 112.897 |
| C=CCn1c(Cc2csc(NC(=O)CCc3nc4ccccc4c(=O)[nH]3)n2)n[nH]c1=S [CBK297888] | 76.897 |
| COc1ccc(F)cc1S(=O)(=O)Nc1cccc(C)n1 [CBK268842] | 98.8212 |
| O=C(c1ccccn1)N1CCCC(n2cnc3cc(F)ccc32)C1 (centres unmarked) [CBK284476] | 94.8829 |
| O=C1CCCN1CCOc1nccnc1/C=C/c1ccccc1 [CBK106875] | 94.2884 |
| CSc1oc(-c2ccccc2)nc1C(N)=O [CBK067744] | 127.781 |
| COC(=O)c1ccc(NC(=S)N2CCC(C(N)=O)CC2)cc1 [CBK267232] | 90.3618 |
| O=C(O)c1snnc1-c1ccccc1 [CBK021545] | 113.991 |
| Cc1ccc2[nH]c3c(c2c1)CCNC31CCN(C(=O)CC(C)CC(=O)O)CC1 (centres unmarked) [CBK047196] | 91.7794 |
| Cc1cnc(COC(=O)N2C[C@@H](C)O[C@@H](C)C2)cn1 [CBK200124] | 104.181 |
| CCCCc1ccc(S(=O)(=O)Nc2nccnc2-c2cccs2)cc1 [CBK050770] | 104.361 |
| O=S(=O)(Nc1cccc2cc[nH]c12)c1ccc(Br)cc1C(F)(F)F [CBK159519] | 58.585 |
| COc1cc(C(C)NC(=O)c2ccc(=O)[nH]n2)ccc1OC1CCCC1 (centres unmarked) [CBK298335] | 122.759 |
| CC(=O)N1CCc2cc(NC(=O)C3CC4C=CC3C43CC3)ccc21 (centres unmarked) [CBK281472] | 63.5474 |
| CCOC(=O)C(C(=O)OCC)(N1CCOCC1)N1CCOCC1 [CBK261176] | 105.965 |

| Structure (SMILES) | % of control remaining |
| --- | --- |
| CC1CC1C(=O)N1CCC(c2nc3ccccc3cc2N)CC1 (centres unmarked) [CBK285090] | 83.9043 |
| O=C(Nc1cccc(C(F)(F)F)c1)N1CCC(n2c(=O)[nH]c3ccccc32)CC1 [CBK149845] | 79.8528 |
| COc1cc(CNC(=O)c2cncc(-c3ccc(C(=O)N4CCOCC4)cc3)c2)cc(OC)c1OC [CBK158632] | 90.9486 |
| O=C(Oc1ccc(/C=N/c2ccc(O)c(-c3nc4ccccc4s3)c2)cc1)c1ccccc1Cl [CBK261241] | 111.482 |
| COc1cc(/C=C(/C#N)c2ccc(C(=O)O)cc2)cc(Br)c1OCC(=O)O [CBK268956] | 118.389 |
| Cc1cccc(/C(C#N)=C\c2cn(CC(=O)O)c3ccccc23)c1 [CBK269457] | 66.134 |
| COc1cc(Cl)nnc1Cl [CBK018956] | 91.3874 |
| O=C(O)c1ccc(Cl)c(S(=O)(=O)NCc2ccco2)c1 [CBK304575] | 84.1904 |
| CC(Cc1nc(-c2cnn(C)n2)cs1)n1cc(Cl)cn1 (centres unmarked) [CBK304256] | 87.8047 |
| CCOC(=O)C(CNC(=O)c1c(C)nn(C)c1C)Cc1ccccc1 (centres unmarked) [CBK305276] | 64.7386 |
| CC(=O)Nc1ccc(CNc2nnc(C3CCCCC3)o2)cc1 [CBK306427] | 49.4992 |
| Cc1cc(/C=C2\SC(=O)N(CC(=O)Nc3ccccc3F)C2=O)c(C)n1-c1cccnc1 [CBK264770] | 96.6066 |
| CCN(CC)c1c(C)nc2ccc(C(=O)Nc3cc(-c4ccccc4)ccc3OC)cn12 [CBK145980] | 79.8965 |
| CC(=O)c1cc(C(=O)Nc2ccc(NC(=O)C(=O)O)cc2)oc1C [CBK264011] | 123.287 |
| COc1ccc(-c2cc(C(=O)N3CCN(C(C)=O)CC3)cnc2-c2ccccc2)cn1 [CBK036637] | 143.396 |
| COc1ccc2c(c1)CCN=C2C[C@H]1CN(C(=O)NC(C)C)CC[C@H]1CC(=O)O [CBK289156] | 85.4027 |
| Nc1nonc1-n1nnc(CN2CCCCC2)c1CN1CCCCC1 [CBK270636] | 38.0472 |
| Cc1[nH]c2ccc(F)cc2c1CC(=O)N(C)CCN(C)C [CBK282726] | 133.564 |
| COc1ccc(-n2ncc(CN(C)C)n2)cc1OC [CBK112862] | 83.2323 |
| O=C(O)COc1ccc(NC(=O)c2ccc3c(c2)C(=O)N(CC2CCCO2)C3=O)cc1 (centres unmarked) [CBK263719] | 99.9776 |
| CCCC(CCC)NC(=O)c1ccc(-n2nc(C(=O)OCC)c(Cl)c2C)cc1 [CBK114323] | 85.4958 |
| Cc1ccc(NCc2nc3ccccc3n2Cc2ccccc2)cc1C [CBK263756] | 89.25 |
| CC(=O)N(C)c1ncc(Br)cc1C(=O)NCC1COc2ccccc2O1 (centres unmarked) [CBK076558] | 95.6738 |
| CC(C)CC(=O)N1CCc2c([nH]c3ccccc23)C12CCN(Cc1ccccc1)C2 (centres unmarked) [CBK059459] | 79.6818 |
| CCc1noc(C)c1C(=O)N1CCC(NC)C1 (centres unmarked) [CBK304299C] | 30.5786 |
